Data: the supplement of paper PMC7826260
The list shows a part of the results. The data describe in vitro nicking of single-stranded DNA by Rep domains at 3 µM enzyme and 37 °C for 1 h; the strands have 90 letters, of which the middle is given. Numbers give uncut DNA relative to the enzyme-free pool, as log2; uncut sequences lie near 0, cut ones below; no hit call is given. Counts are relative to all reads; values above 0 arise when much of the pool is cut.

Columns and labels:
Test in all cases: uncleaved DNA left, log2 of reads against the no-enzyme library (log2 ratio); higher = less cleavage (more negative = more Rep cleavage of the k-mer); sequences stand for … in CTCGTCCG…ACCGGAGA
[1] = system: T1, Rep nickase domain of Muscovy duck circovirus
T1 sequence (Rep 1-111, printed without the tag): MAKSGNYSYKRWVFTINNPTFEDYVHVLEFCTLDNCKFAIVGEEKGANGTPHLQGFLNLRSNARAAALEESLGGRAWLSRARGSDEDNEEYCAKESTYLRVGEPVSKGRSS
Procedure: (§1)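 A pool of 90-nt single-stranded DNAs with seven random bases just before the constant AC of the nick site (name = the seven bases) was cut by 3 µM recombinant His6-SUMO-tagged Rep nickase domain (300 nM DNA, 50 mM HEPES pH 8.0, 50 mM NaCl, 1 mM MnCl2, 1 h, 37 °C, three replicates). Uncut DNA was amplified and sequenced.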

[2] = system: T2, Rep nickase domain of banana bunchy top virus
T2 sequence (Rep 1-94, printed without the tag): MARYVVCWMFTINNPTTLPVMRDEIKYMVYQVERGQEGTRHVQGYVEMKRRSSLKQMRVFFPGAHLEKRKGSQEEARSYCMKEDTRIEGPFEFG
Procedure: as §1

[3] = system: T3, Rep nickase domain of cabbage leaf curl virus
T3 sequence (Rep 1-116, printed without the tag): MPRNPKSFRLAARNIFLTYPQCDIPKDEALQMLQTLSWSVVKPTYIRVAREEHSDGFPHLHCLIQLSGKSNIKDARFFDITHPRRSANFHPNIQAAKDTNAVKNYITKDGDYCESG
Procedure: as §1

[4] = system: T4, Rep nickase domain of chickpea chlorotic dwarf virus
T4 sequence (Rep 1-124, printed without the tag): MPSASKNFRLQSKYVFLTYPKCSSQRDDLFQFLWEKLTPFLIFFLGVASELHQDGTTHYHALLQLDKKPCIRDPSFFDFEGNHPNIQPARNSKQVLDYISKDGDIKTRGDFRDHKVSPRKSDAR
Procedure: as §1

[5] = system: T5, Rep nickase domain of faba bean necrotic yellows virus
T5 sequence (Rep 1-98, printed without the tag): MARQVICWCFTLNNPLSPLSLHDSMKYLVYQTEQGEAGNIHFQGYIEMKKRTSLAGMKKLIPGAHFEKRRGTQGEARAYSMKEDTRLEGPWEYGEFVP
Procedure: as §1

[6] = system: T6, Rep nickase domain of maize striate mosaic virus
T6 sequence (Rep 1-117, printed without the tag): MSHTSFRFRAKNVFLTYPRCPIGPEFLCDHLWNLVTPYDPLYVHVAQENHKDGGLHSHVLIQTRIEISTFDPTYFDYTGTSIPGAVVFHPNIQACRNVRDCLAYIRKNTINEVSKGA
Procedure: as §1

[7] = system: T7, Rep nickase domain of porcine circovirus 2
T7 sequence (Rep 2-116, printed without the tag): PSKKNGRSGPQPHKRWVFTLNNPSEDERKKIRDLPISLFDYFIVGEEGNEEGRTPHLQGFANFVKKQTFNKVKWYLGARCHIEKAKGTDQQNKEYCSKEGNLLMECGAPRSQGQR
Procedure: as §1

[8] = system: T8, Rep nickase domain of tomato golden mosaic virus
T8 sequence (Rep 1-124, printed without the tag): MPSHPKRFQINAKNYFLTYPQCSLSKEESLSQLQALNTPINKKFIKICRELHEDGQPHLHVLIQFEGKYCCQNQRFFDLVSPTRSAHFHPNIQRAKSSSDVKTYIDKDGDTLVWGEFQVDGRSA
Procedure: as §1

[9] = system: T9, Rep nickase domain of tomato yellow leaf curl virus
T9 sequence (Rep 1-136, printed without the tag): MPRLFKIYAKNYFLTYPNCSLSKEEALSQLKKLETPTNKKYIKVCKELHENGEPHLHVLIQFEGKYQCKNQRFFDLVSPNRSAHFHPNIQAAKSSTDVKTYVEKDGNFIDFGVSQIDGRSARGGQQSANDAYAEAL
Procedure: as §1

[10] = system: T10, Rep nickase domain of wheat dwarf virus
T10 sequence (Rep 1-137, printed without the tag): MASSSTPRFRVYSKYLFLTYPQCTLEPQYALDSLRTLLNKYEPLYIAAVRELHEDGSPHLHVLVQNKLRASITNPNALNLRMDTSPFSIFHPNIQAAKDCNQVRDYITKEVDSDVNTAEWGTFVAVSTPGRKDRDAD
Procedure: as §1

Sequence | uncleaved DNA left (log2) [1] | uncleaved DNA left (log2) [2] | uncleaved DNA left (log2) [3] | uncleaved DNA left (log2) [4] | uncleaved DNA left (log2) [5] | uncleaved DNA left (log2) [6] | uncleaved DNA left (log2) [7] | uncleaved DNA left (log2) [8] | uncleaved DNA left (log2) [9] | uncleaved DNA left (log2) [10]
GGGAGGG | 0.103 | 0.0666 | 0.755 | 1.82 | -0.0153 | 2.03 | 0.204 | 0.043 | -0.0214 | 0.12
TAAATTC | -0.102 | -0.107 | -3.35 | -3.13 | -0.0702 | -1.87 | -0.0575 | -0.76 | -0.108 | -2.31
GCGATTT | 0.205 | 0.149 | 0.183 | 0.301 | 0.123 | 1.35 | 0.0592 | 0.162 | 0.106 | 0.226
TCGGCCG | 0.117 | 0.0775 | -0.847 | -0.42 | -0.0523 | -1.05 | 0.178 | -0.0647 | 0.00339 | -0.0829
CCGGACT | -0.027 | -0.166 | 0.445 | 0.675 | -0.12 | 1.63 | -0.0265 | -0.0868 | -0.13 | 0.0103
CGTCATC | 0.0761 | 0.0619 | 0.185 | 0.364 | 0.0546 | -0.0901 | 0.0532 | -0.034 | 0.172 | 0.117
AGTGTTC | 0.00159 | -0.0702 | 0.0843 | -0.868 | -0.152 | 0.194 | -0.228 | -0.00931 | -0.109 | -0.0595
TCCTAGT | -1.56 | -0.085 | -0.0538 | -0.715 | -0.148 | -0.877 | -3.24 | -0.069 | -0.146 | -0.082
TCGTTGG | 0.0226 | 0.00521 | -0.299 | -0.509 | -0.0778 | -0.733 | 0.0841 | 0.00704 | -0.0318 | -0.0544
ATACCGG | 0.0253 | -0.0163 | 0.358 | 1.1 | 0.00376 | 1.03 | 0.157 | 0.103 | -0.0564 | 0.0432
CATCTAC | -0.0472 | -0.0228 | -0.183 | -1.99 | -0.0478 | -0.534 | 0.0473 | -0.0186 | 0.138 | 0.0233
CTTTTCA | -0.146 | -0.00383 | 0.00584 | -1.2 | -0.104 | -0.645 | -0.225 | -0.0764 | 0.0979 | 0.0951
ACAAAAG | 0.106 | 0.093 | -0.686 | 0.296 | 0.172 | -0.683 | 0.284 | 0.0785 | 0.156 | 0.0749
TGGCATA | 0.0261 | -0.00768 | 0.562 | 1.35 | -0.0916 | 1.68 | 0.0183 | -0.063 | -0.012 | 0.0595
AGTGAAT | -0.0552 | -0.0736 | 0.158 | 0.694 | -0.103 | 1.45 | -1.31 | 0.0725 | -0.125 | -0.0337
ATTAGGA | 0.015 | -0.0682 | 0.12 | 0.425 | -0.0175 | -0.249 | 0.0838 | 0.00923 | -0.151 | -0.0685
AAATCTT | -4.17 | -1.2 | -4.56 | -3.61 | -0.251 | -3.18 | -4.53 | -4.12 | -0.702 | -4.15
ACATGGA | 0.0235 | -0.0713 | -0.406 | -0.407 | -0.034 | -0.916 | 0.0775 | 0.0758 | -0.0163 | -0.0739
GTATGTG | 0.0411 | 0.0339 | -0.572 | -0.48 | 0.00588 | -0.836 | 0.149 | -0.0163 | 0.112 | -0.0699
TTGGCTA | -0.0471 | -0.0284 | 0.00573 | -0.239 | -0.0719 | -0.0854 | -0.0568 | -0.128 | -0.0622 | -0.17
AGATCTG | 0.0516 | 0.139 | 0.0911 | 0.727 | 0.093 | 1.54 | 0.108 | 0.0341 | -0.038 | 0.176
GGTTGGT | -0.088 | -0.0405 | 0.328 | 0.845 | -0.0738 | 1.23 | -0.465 | -0.0486 | 0.0555 | 0.0398
AACAGCC | 0.0502 | 0.000625 | -0.264 | -0.632 | 0.0679 | -1.01 | 0.076 | -0.0966 | -0.082 | -0.0152
TGAAAGT | 0.0808 | 0.0193 | 0.0493 | -0.259 | -0.0157 | -0.665 | -0.0501 | -0.0206 | 0.0482 | -0.0152
CCGATGT | 0.0246 | 0.0265 | 0.0571 | -0.0566 | -0.0475 | -0.339 | -0.0645 | -0.0357 | 0.0967 | -0.133
GCGTACT | -0.796 | -0.22 | -0.0534 | -0.126 | -0.342 | 1.28 | -2.69 | -0.211 | -0.076 | 0.023
ACGCGGT | -0.0876 | -0.0827 | -0.542 | -0.531 | -0.115 | -0.75 | -0.0794 | 0.00485 | -0.0618 | -0.12
CCCGTCC | 0.123 | -0.00785 | 0.144 | -0.143 | 0.00942 | -0.104 | 0.0506 | -0.0175 | 0.0775 | -0.0682
ATGATCA | 0.045 | 0.15 | 0.259 | -0.469 | 0.109 | -0.0868 | 0.0993 | 0.0789 | 0.0676 | 0.155
CTCGGCA | 0.0405 | 0.0792 | -0.0295 | -0.397 | 0.145 | -0.728 | -0.063 | 0.0577 | 0.216 | 0.00421
